The values below come from article PMC4574297, “A mitochondria-anchored isoform of the actin-nucleating spire protein regulates mitochondrial division” (eLife, 2015).

The assay has as its target T1, INF2-CT, the C-terminal half of inverted formin 2 (amino acids 469-1249, containing FH1, FH2 and C-terminal … (human, UniProt Q27J81 469-1249)).
T1 construct: inverted formin 2 (INF2), residues 469-1249, FH1, FH2 and C-terminal regions; also called C-terminal half of INF2; source: purified as described (Ramabhadran et al., 2012)
T1 sequence (Q27J81 469-1249): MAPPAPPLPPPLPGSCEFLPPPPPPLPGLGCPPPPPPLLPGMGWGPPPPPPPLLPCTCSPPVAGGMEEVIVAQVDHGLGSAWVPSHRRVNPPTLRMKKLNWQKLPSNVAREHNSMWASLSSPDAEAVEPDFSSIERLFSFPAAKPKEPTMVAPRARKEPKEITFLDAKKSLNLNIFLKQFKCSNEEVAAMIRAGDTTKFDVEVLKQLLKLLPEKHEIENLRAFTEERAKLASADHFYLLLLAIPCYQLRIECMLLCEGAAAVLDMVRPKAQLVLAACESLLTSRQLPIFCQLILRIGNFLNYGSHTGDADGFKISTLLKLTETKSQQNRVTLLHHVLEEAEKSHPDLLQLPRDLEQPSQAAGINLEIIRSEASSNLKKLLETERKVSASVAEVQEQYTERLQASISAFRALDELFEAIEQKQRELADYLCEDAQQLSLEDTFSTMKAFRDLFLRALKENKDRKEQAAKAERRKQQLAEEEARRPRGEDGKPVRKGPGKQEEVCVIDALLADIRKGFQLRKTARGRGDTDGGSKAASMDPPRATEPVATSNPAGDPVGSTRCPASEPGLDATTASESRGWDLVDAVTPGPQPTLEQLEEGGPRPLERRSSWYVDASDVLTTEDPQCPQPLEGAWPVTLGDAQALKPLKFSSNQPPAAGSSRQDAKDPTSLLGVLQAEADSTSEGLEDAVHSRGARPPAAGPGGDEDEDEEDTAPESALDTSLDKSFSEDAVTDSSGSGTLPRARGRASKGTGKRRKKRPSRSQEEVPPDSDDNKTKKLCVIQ
As to the kind of experiment: pull-down; 20 μM GST or GST-Spire1 KIND bound to glutathione-sepharose beads; 1 μM INF2-CT and/or 10 μM INF2-NT; binding buffer 50 mM KCl, 1 mM MgCl2, 1 mM EGTA, 10 mM Hepes-HCl pH 7.4, 1 mM DTT, 0.02% thesit; incubated overnight, washed once; SDS-PAGE of the pellet. Particulars: both partners purified.

B1: INF2-NT, the N-terminal half of inverted formin 2 ([…], containing DID and dimerization region) (domain or fragment)
chain: not shown
notes: inverted formin 2 (INF2), […], DID and dimerization region; also called N-terminal half of INF2; source: purified as described (Ramabhadran et al., 2012)
For B1, the binding result is recorded as “binds”.
